# Measurements published in the supplement of paper PMC8728848.
# This is one part of the list.
# Columns and labels:
# Test in all cases: glycan array binding signal (z-score within array); higher = stronger binding
# Details in all cases: glycan notation: IUPAC condensed, linker removed
# [1] = target: Fuc(a1-2)[Gal(a1-3)]Gal(b1-4)Glc
# Procedure, shortened: (§1)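 The binding signal is a Z-score computed within each array. Data were drawn from 3228 arrays in the Consortium for Functional Glycomics database, restricted to those with a known protein sequence. Scores were averaged over arrays of the same protein sequence at different concentrations or buffers, and over linkers, and negative values can be taken as non-binding.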
# [2] = target: Fuc(a1-2)[Gal(a1-3)]Gal(b1-4)GlcNAc
# Procedure, shortened: as §1
# [3] = target: Fuc(a1-2)[Gal(a1-3)]Gal(b1-4)GlcNAc(b1-2)Man(a1-3)[Fuc(a1-2)[Gal(a1-3)]Gal(b1-4)GlcNAc(b1-2)Man(a1-6)]Man(b1-4)GlcNAc(b1-4)GlcNAc
# Procedure, shortened: as §1
# [4] = target: Fuc(a1-2)[Gal(a1-3)]Gal(b1-4)GlcNAc(b1-2)Man(a1-3)[Fuc(a1-2)[Gal(a1-3)]Gal(b1-4)GlcNAc(b1-2)Man(a1-6)]Man(b1-4)GlcNAc(b1-4)[Fuc(a1-6)]GlcNAc
# Procedure, shortened: as §1
# [5] = target: Fuc(a1-2)[Gal(a1-3)]Gal(b1-4)GlcNAc(b1-3)GalNAc
# Procedure, shortened: as §1
# [6] = target: Fuc(a1-2)[Gal(a1-3)]Gal(b1-4)[Fuc(a1-3)]Glc
# Procedure, shortened: as §1
# [7] = target: Fuc(a1-2)[Gal(a1-3)]Gal(b1-4)[Fuc(a1-3)]GlcNAc
# Procedure, shortened: as §1
# [8] = target: Fuc(a1-2)[Gal(a1-3)]Gal(b1-4)[Fuc(a1-3)]GlcNAc(b1-3)GalNAc
# Procedure, shortened: as §1
# [9] = target: Fuc(a1-2)[Gal(a1-4)]Gal(b1-4)GlcNAc
# Procedure, shortened: as §1
# [10] = target: Fuc(a1-2)[GalNAc(a1-3)]Gal
# Procedure, shortened: as §1
# [11] = target: Fuc(a1-2)[GalNAc(a1-3)]Gal(b1-3)GalNAc(a1-3)[Fuc(a1-2)]Gal(b1-4)GlcNAc
# Procedure, shortened: as §1
# [12] = target: Fuc(a1-2)[GalNAc(a1-3)]Gal(b1-3)GlcNAc
# Procedure, shortened: as §1
# [13] = target: Fuc(a1-2)[GalNAc(a1-3)]Gal(b1-3)GlcNAc(b1-2)Man(a1-3)[Fuc(a1-2)[GalNAc(a1-3)]Gal(b1-3)GlcNAc(b1-2)Man(a1-6)]Man(b1-4)GlcNAc(b1-4)GlcNAc
# Procedure, shortened: as §1
# [14] = target: Fuc(a1-2)[GalNAc(a1-3)]Gal(b1-3)GlcNAc(b1-2)Man(a1-3)[Fuc(a1-2)[GalNAc(a1-3)]Gal(b1-3)GlcNAc(b1-2)Man(a1-6)]Man(b1-4)GlcNAc(b1-4)[Fuc(a1-6)]GlcNAc
# Procedure, shortened: as §1
# [15] = target: Fuc(a1-2)[GalNAc(a1-3)]Gal(b1-3)GlcNAc(b1-3)GalNAc
# Procedure, shortened: as §1
# [16] = target: Fuc(a1-2)[GalNAc(a1-3)]Gal(b1-4)Glc
# Procedure, shortened: as §1
# [17] = target: Fuc(a1-2)[GalNAc(a1-3)]Gal(b1-4)GlcNAc
# Procedure, shortened: as §1
# [18] = target: Fuc(a1-2)[GalNAc(a1-3)]Gal(b1-4)GlcNAc(b1-2)Man(a1-3)[Fuc(a1-2)[GalNAc(a1-3)]Gal(b1-4)GlcNAc(b1-2)Man(a1-6)]Man(b1-4)GlcNAc(b1-4)GlcNAc
# Procedure, shortened: as §1
# [19] = target: Fuc(a1-2)[GalNAc(a1-3)]Gal(b1-4)GlcNAc(b1-2)Man(a1-3)[Fuc(a1-2)[GalNAc(a1-3)]Gal(b1-4)GlcNAc(b1-2)Man(a1-6)]Man(b1-4)GlcNAc(b1-4)[Fuc(a1-6)]GlcNAc
# Procedure, shortened: as §1
# [20] = target: Fuc(a1-2)[GalNAc(a1-3)]Gal(b1-4)GlcNAc(b1-3)Gal(b1-4)GlcNAc
# Procedure, shortened: as §1
# [21] = target: Fuc(a1-2)[GalNAc(a1-3)]Gal(b1-4)GlcNAc(b1-3)Gal(b1-4)GlcNAc(b1-3)Gal(b1-4)GlcNAc
# Procedure, shortened: as §1
# [22] = target: Fuc(a1-2)[GalNAc(a1-3)]Gal(b1-4)GlcNAc(b1-3)GalNAc
# Procedure, shortened: as §1
# [23] = target: Fuc(a1-2)[GalNAc(a1-3)]Gal(b1-4)[Fuc(a1-3)]GlcNAc
# Procedure, shortened: as §1
# [24] = target: Fuc(a1-2)[GalNAc(a1-3)]Gal(b1-4)[Fuc(a1-3)]GlcNAc(b1-3)GalNAc
# Procedure, shortened: as §1
# [25] = target: Fuc(a1-2)[GalNAc(a1-4)]Gal(b1-4)GlcNAc
# Procedure, shortened: as §1
# [26] = target: Fuc(a1-2)[GalNAc(b1-3)]Gal
# Procedure, shortened: as §1
# [27] = target: Fuc(a1-3)GlcNAc
# Procedure, shortened: as §1
# [28] = target: Fuc(a1-3)[Gal(b1-4)]Glc6S
# Procedure, shortened: as §1
# [29] = target: Fuc(a1-3)[Gal(b1-4)]GlcNAc
# Procedure, shortened: as §1
# [30] = target: Fuc(a1-3)[Gal(b1-4)]GlcNAc(b1-2)Man(a1-3)[Fuc(a1-3)[Gal(b1-4)]GlcNAc(b1-2)Man(a1-6)]Man(b1-4)GlcNAc(b1-4)GlcNAc
# Procedure, shortened: as §1
# [31] = target: Fuc(a1-3)[Gal(b1-4)]GlcNAc(b1-2)Man(a1-3)[Fuc(a1-3)[Gal(b1-4)]GlcNAc(b1-2)Man(a1-6)]Man(b1-4)GlcNAc(b1-4)[Fuc(a1-6)]GlcNAc
# Procedure, shortened: as §1
# [32] = target: Fuc(a1-3)[Gal(b1-4)]GlcNAc(b1-3)Gal(b1-3)[Fuc(a1-4)]GlcNAc
# Procedure, shortened: as §1
# [33] = target: Fuc(a1-3)[Gal(b1-4)]GlcNAc(b1-3)GalNAc
# Procedure, shortened: as §1
# [34] = target: Fuc(a1-3)[Gal(b1-4)]GlcNAc(b1-4)Gal(b1-4)[Fuc(a1-3)]GlcNAc
# Procedure, shortened: as §1
# [35] = target: Fuc(a1-3)[Gal(b1-4)]GlcNAc(b1-4)Gal(b1-4)[Fuc(a1-3)]GlcNAc(b1-4)Gal(b1-4)[Fuc(a1-3)]GlcNAc
# Procedure, shortened: as §1
# [36] = target: Fuc(a1-3)[Gal(b1-4)]GlcNAc(b1-6)GalNAc
# Procedure, shortened: as §1
# [37] = target: Fuc(a1-3)[Gal(b1-4)]GlcNAc(b1-6)[Gal(b1-3)GlcNAc(b1-3)]Gal(b1-4)Glc
# Procedure, shortened: as §1
# [38] = target: Fuc(a1-3)[Gal(b1-4)]GlcNAc(b1-6)[Neu5Ac(a2-3)Gal(b1-3)]GalNAc
# Procedure, shortened: as §1
# [39] = target: Fuc(a1-3)[Gal(b1-4)]GlcNAc6S
# Procedure, shortened: as §1
# [40] = target: Fuc(a1-3)[Gal3S(b1-4)]GlcNAc
# Procedure, shortened: as §1
# [41] = target: Fuc(a1-3)[Gal3S(b1-4)]GlcNAc6S
# Procedure, shortened: as §1
# [42] = target: Fuc(a1-3)[GalNAc(b1-4)]GlcNAc
# Procedure, shortened: as §1
# [43] = target: Fuc(a1-4)GlcNAc
# Procedure, shortened: as §1
# [44] = target: Fuc(b1-3)GlcNAc
# Procedure, shortened: as §1
# [45] = target: Gal(a1-2)Gal
# Procedure, shortened: as §1
binder,measurement,setting,value
"CV-2L (Chromobacterium violaceum), Q7NX84 (protein) MAQQGVFTLPARINFGVTVLVNSAATQHVEIFVDNEPRAAFSGVGTGDNNLGTKVINSGSGNVRVQITANGRQSDLVSSQLVLANKLNLAVVGSEDGTDMDYNDSIVILNWPLG",glycan array binding signal (z-score),[1],-0.344
same,glycan array binding signal (z-score),[2],-0.342
same,glycan array binding signal (z-score),[3],-0.33
same,glycan array binding signal (z-score),[4],-0.257
same,glycan array binding signal (z-score),[5],-0.331
same,glycan array binding signal (z-score),[6],-0.019
same,glycan array binding signal (z-score),[7],-0.313
same,glycan array binding signal (z-score),[8],-0.294
same,glycan array binding signal (z-score),[9],-0.086
same,glycan array binding signal (z-score),[10],-0.2
same,glycan array binding signal (z-score),[11],-0.34
same,glycan array binding signal (z-score),[12],-0.347
same,glycan array binding signal (z-score),[13],-0.316
same,glycan array binding signal (z-score),[14],-0.083
same,glycan array binding signal (z-score),[15],-0.293
same,glycan array binding signal (z-score),[16],-0.309
same,glycan array binding signal (z-score),[17],-0.34
same,glycan array binding signal (z-score),[18],-0.325
same,glycan array binding signal (z-score),[19],-0.222
same,glycan array binding signal (z-score),[20],0.184
same,glycan array binding signal (z-score),[21],-0.266
same,glycan array binding signal (z-score),[22],-0.34
same,glycan array binding signal (z-score),[23],-0.059
same,glycan array binding signal (z-score),[24],-0.328
same,glycan array binding signal (z-score),[25],0.033
same,glycan array binding signal (z-score),[26],-0.332
same,glycan array binding signal (z-score),[27],1.49
same,glycan array binding signal (z-score),[28],0.315
same,glycan array binding signal (z-score),[29],-0.156
same,glycan array binding signal (z-score),[30],-0.265
same,glycan array binding signal (z-score),[31],-0.345
same,glycan array binding signal (z-score),[32],0.884
same,glycan array binding signal (z-score),[33],-0.324
same,glycan array binding signal (z-score),[34],-0.267
same,glycan array binding signal (z-score),[35],-0.252
same,glycan array binding signal (z-score),[36],-0.317
same,glycan array binding signal (z-score),[37],-0.288
same,glycan array binding signal (z-score),[38],-0.317
same,glycan array binding signal (z-score),[39],-0.291
same,glycan array binding signal (z-score),[40],-0.3
same,glycan array binding signal (z-score),[41],-0.316
same,glycan array binding signal (z-score),[42],-0.288
same,glycan array binding signal (z-score),[43],1.03
same,glycan array binding signal (z-score),[44],-0.347
same,glycan array binding signal (z-score),[45],-0.339
